# Results published in the BET-seq Pho4 binding data (Le et al. 2018).
# The list shows a part of the results. The energies were worked out here from pooled read counts, against the library average; single values are noisy.
# Target: T1, Pho4 (S. cerevisiae) (UniProt P07270)
# T1 sequence: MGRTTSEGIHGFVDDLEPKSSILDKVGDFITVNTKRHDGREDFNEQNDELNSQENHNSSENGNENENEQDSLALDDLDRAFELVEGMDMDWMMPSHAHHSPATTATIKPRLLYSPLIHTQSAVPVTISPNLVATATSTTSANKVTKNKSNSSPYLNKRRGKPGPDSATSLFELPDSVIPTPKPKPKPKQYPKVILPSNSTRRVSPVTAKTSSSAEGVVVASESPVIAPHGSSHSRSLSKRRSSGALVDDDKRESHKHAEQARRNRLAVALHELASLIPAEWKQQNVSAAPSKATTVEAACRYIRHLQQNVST
# Test: relative binding free energy (BET-seq); higher = weaker binding
# Conditions: reference: library average
row,Sequence,relative binding free energy [kJ/mol]
1,GCTTGCACGTGGGAAT,0
2,CAGTTCACGTGGCAGT,1.3
3,GGGTACACGTGTTCAG,-0.335
4,AGAATCACGTGGGCGT,0.335
5,TGTGCCACGTGGGTTA,-0.795
6,GTAAACACGTGGGTAA,-0.0418
7,TCGCGCACGTGGGGGT,-1.42
8,TAGTACACGTGTGCGT,0.502
9,CTTTTCACGTGTATAG,1.09
10,GCGGTCACGTGACGGT,0.92
11,TCGGGCACGTGGTGTA,-0.92
12,TTCAACACGTGGGGAT,-0.377
13,TGCCTCACGTGGGGCT,0.544
14,CCGTACACGTGGGTGG,-0.586
15,ATAATCACGTGATGAT,0.795
16,TAGTTCACGTGAGTTA,1.21
17,TGTCCCACGTGGGGGA,-0.92
18,GGCTACACGTGGGGGT,0.0837
19,ATGATCACGTGAGTCG,1.55
20,TTCTTCACGTGAGGCT,1.67
21,TATGGCACGTGAATTG,0.628
22,AACGACACGTGAAGGG,1.8
23,GGGATCACGTGAAGGG,1.67

row,Sequence,relative binding free energy [kJ/mol]
1,AATTACACGTGGTGGA,0.335
2,GAGGGCACGTGTGTAA,0.167
3,AGGATCACGTGTGTGT,1
4,AAGATCACGTGTTATG,0.628
5,GATTTCACGTGTGACT,1.97
6,GGAGACACGTGTTTGG,-0.126
7,TGGTACACGTGTAGGC,0.46
8,TATAACACGTGATCGG,0.711
9,GGGTTCACGTGTCTGA,1.55
10,GTAATCACGTGGGAGG,0.795
11,GGAGACACGTGGGGTG,-0.251
12,CGTCTCACGTGGGCGG,0.126
13,ATGTGCACGTGCTATT,-0.293
14,GGGAACACGTGATGTG,1.05
15,AGCGGCACGTGTAATA,1
16,GCGCACACGTGAGGGG,0.502
17,AAAAACACGTGGGGTA,-0.92
18,CGTCACACGTGGGTGG,-0.293
19,TTCGGCACGTGGATTG,-0.377
20,AAACGCACGTGGTGTG,-0.586
21,CGGGGCACGTGAGTCT,0.795
22,GTCGACACGTGTATTG,0.586
23,TCTGTCACGTGGGGTA,-0.167

row,Sequence,relative binding free energy [kJ/mol]
1,GTTGCCACGTGTCGTT,0.126
2,GTGTACACGTGGAGGT,0.837
3,CGGAGCACGTGTGCGT,-0.0837
4,GTAGGCACGTGGAACG,0.126
5,TGGCACACGTGGTATT,-0.251
6,TGGTTCACGTGCTGGT,0.962
7,TGCTACACGTGAATTG,1.76
8,TAATGCACGTGCTGGA,-0.46
9,CGGGTCACGTGAGTTG,1.3
10,TGGAACACGTGTGTGA,-0.209
11,GTGTTCACGTGTCTGT,1.42
12,CGTGGCACGTGAAGAG,0.251
13,CTATGCACGTGTTTGA,-0.502
14,CGGATCACGTGATGTA,1.34
15,GTCGCCACGTGTGGGT,-0.126
16,TGGCGCACGTGGAATT,-0.251
17,TCGGGCACGTGGTATA,-1
18,GGTTCCACGTGGTAGG,0.377
19,CTTGTCACGTGTATGT,0.167
20,GGTCCCACGTGGGGGT,-1.05
21,AAGGTCACGTGTGGCT,0.669
22,GAGCGCACGTGGGCTT,-0.377
23,TAAGTCACGTGGACGT,0.335

row,Sequence,relative binding free energy [kJ/mol]
1,ATAGGCACGTGTGATA,-0.126
2,GAGATCACGTGCTTGG,1
3,TTACTCACGTGTGAGT,0.962
4,CATGGCACGTGTTAGT,-0.586
5,GGAGCCACGTGGCTGT,-0.418
6,TTTAGCACGTGGGCGG,-0.544
7,TTAACCACGTGGGTTG,-1.34
8,CTCGTCACGTGTTGAG,0.837
9,AGTGTCACGTGCAGTG,0.0837
10,CAGGACACGTGGTAGT,-0.0418
11,GGATACACGTGTCGGA,0.711
12,TGTAGCACGTGTGATT,-0.377
13,TTTAGCACGTGTAAGT,0.502
14,TATGCCACGTGGGTGC,-1.13
15,TCTGACACGTGTTAGA,0.879
16,GACTGCACGTGGAAGT,1.05
17,GTGTGCACGTGGAGCG,0.126
18,GCGGGCACGTGAGGTG,0.879
19,TCGTTCACGTGGTTGT,0.92
20,AAGTTCACGTGGATTG,1
21,CTTGGCACGTGGGAGA,-0.586
22,TGAGCCACGTGGGTTT,-0.335
23,TATAACACGTGGTGTC,-0.669

row,Sequence,relative binding free energy [kJ/mol]
1,AGAACCACGTGGTGGG,-0.879
2,TCTTTCACGTGGGAAT,1.09
3,GGATTCACGTGATCGG,1.59
4,CGTGCCACGTGGTAGG,-1
5,ATAATCACGTGCGTTT,0.628
6,TGGGGCACGTGATATC,-0.335
7,GCGGTCACGTGATGAG,1
8,TTGATCACGTGAATGG,1.84
9,GATTTCACGTGTGCGA,1.59
10,GGTAACACGTGCGTGG,-0.0418
11,AAGGCCACGTGGGTGT,-1.26
12,GGTTGCACGTGACGGA,0.92
13,TGGTGCACGTGATAGG,0.0837
14,AGAGGCACGTGTGTCG,-0.209
15,ATATGCACGTGGTACT,-0.628
16,AGTTCCACGTGTAATG,0.879
17,ATTATCACGTGTAGTG,0.544
18,GTACACACGTGGGGAT,0.209
19,GGGTTCACGTGGGTTG,0.962
20,GGTGTCACGTGGACAG,0.628
21,CTAGTCACGTGGGCGG,-0.0837
22,TCTGACACGTGGAGGT,0.0418
23,GCTGACACGTGATGGT,1
